Measured values: PubChem BioAssay AID624418 (National Center for Advancing Translational Sciences (NCATS), 2012)
In all, about 410,000 compounds went through this assay and about 530 (0.13%) were called active. Inconclusive means that the source gave no clear call. Such entries were picked first, then a sample of the others. The call rests on the fitted dose curve; in most records, active means well fitted inhibition curve with a large enough effect; inconclusive means small, poorly fitted or top-dose-only effect, or another doubt; inactive means no such curve, though single readings can be large or run the other way. A potency beside an inconclusive call is a rough fit, not a confirmed value.
On the % scale 0 is the no-effect control and ±100 the full control effect; potency means the concentration at half of the fitted maximal effect.

Test: qHTS of GLP-1 Receptor Inverse Agonists: Cytotox Screen
Details: HEK293 cAMP-luciferase reporter cells, luminescence, 24 h; activity change, negative = inhibition: at 38.3 µM (top of the series) unless noted
Summary of the method: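 Compound-treated cells are incubated 24 hr at 37 deg C under 5% CO2 after a 12 hour attachment period, then luciferase detection reagent is added and luminescence is measured following 12 min at room temperature; lowered signal indicates toxicity.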
For `C=CCN(CC=C)C(=S)NC(=O)c1ccc([N+](=O)[O-])cc1`, the Potency was inconclusive: 1.58 µM [inhibitor, full curve, poor fit]. For `CC1(C)Cc2c(c(N3CCOCC3)nc3snc(N)c23)CO1`, the Potency was “inactive”. For `CC(C)c1ccc(NC(=O)Nc2nc(C(N)c3ccccc3)cs2)cc1` (stereo not given), the Potency was inconclusive: 31.6 µM [inhibitor, single point]. With `Cc1ccc(C(=O)c2ccc([N+](=O)[O-])cc2)cc1` the Potency was “inactive”. With `Cn1nccc1C(=O)N1CCC(Cc2ccccc2)CC1` the Potency was “inactive”. In the case of `CN(C)Cc1cn(CCC(=O)O)c2ccccc12`, the Potency was “inactive”. In the case of `CCOC(=O)N1CCN(S(=O)(=O)c2ccc(C(=O)Nc3sc4c(c3C(N)=O)CC(C)(C)NC4(C)C)cc2)CC1`, the Potency was inconclusive: 28.2 µM [inhibitor, single point]. In the case of `CCSc1cc(N2CCOCC2)nc(-c2ccccc2)n1`, the Potency was “inactive”. In the case of `CC(C)(C)c1ccc(Cn2c(=O)cnc3ccccc32)cc1`, the Potency was inconclusive: 8.91 µM [inhibitor, partial curve, poor fit]. In the case of `O=C(/C=C/c1ccccc1[N+](=O)[O-])N1CCCCC1`, the Potency was “inactive”. In the case of `Cc1ccc(C)c(N2CCN(C(=O)CCCN3C(=S)NC(C)(C)CC3C)CC2)c1` (stereo not given), the Potency was inconclusive: 28.2 µM [inhibitor, single point]. With `Cc1ccc2nc(-c3ccncc3)cc(C(=O)Nc3ccc(OC(F)F)cc3)c2c1` the Potency was inconclusive: 11.2 µM [inhibitor, single point]. For `CCCCc1ccc(-n2nnnc2SCC(=O)Nc2cc(OC)c([N+](=O)[O-])cc2C)cc1`, the Potency was inconclusive: 12.6 µM [inhibitor, partial curve, poor fit]. In the case of `COc1cccc(-c2cc(C(=O)N3CCCCC3C)no2)c1` (stereo not given), the Potency was “inactive”. For `Cc1ccc(Nc2c(-c3ccc(Cl)cc3)nc3sccn23)c(C)c1`, the Potency was “inactive”. In the case of `CC(C)Oc1cccc(C(=O)Nc2ccc3oc(-c4cccc(Cl)c4)nc3c2)c1`, the Potency was “inactive”. For `COc1ccc2[nH]c(C)c(C(=O)CN3CCN(C/C=C/c4ccccc4)CC3)c2c1`, the Potency was inconclusive: 11.2 µM [inhibitor, partial curve, poor fit]. With `N=NC(=O)c1ccccc1Nc1c(O)[nH]c2ccccc12` the Potency was inconclusive: 22.4 µM [inhibitor, single point]. With `CCC/C=C/c1ccc(CN2C(CC(C)C)C(=O)N(Cc3cn(CCC4OCCCO4)nn3)CCS2(=O)=O)cc1` (stereo not given) the Potency was inconclusive: 31.6 µM [inhibitor, single point]. For `O=C(NCC(F)(F)F)c1cc2c(c(-c3cccc(-c4ccccc4F)c3)n1)[C@H](CCO)N(C(=O)CC1CC1)C2`, the Potency was inconclusive: 7.94 µM [inhibitor, partial curve, poor fit]. For `CS(=O)(=O)N1CCN(c2ccc([N+](=O)[O-])c(NCc3cccnc3)c2)CC1`, the Potency was inconclusive: 11.2 µM [inhibitor, single point]. For `O=C(CCl)N(c1ccccc1)c1ccccc1`, the Potency was inconclusive: 12.6 µM [inhibitor, single point]. For `O=C(NC(Nc1nc2ccc([N+](=O)[O-])cc2s1)(C(F)(F)F)C(F)(F)F)c1ccccc1Cl`, the Potency was inconclusive: 28.2 µM [inhibitor, single point]. For `Cc1ccc(/C=C2\SC(=S)N(C(Cc3ccccc3)C(=O)O)C2=O)cc1` (stereo not given), the Potency was inconclusive: 28.2 µM [inhibitor, single point]. For `N/C(=N\OC(=O)c1ccccc1)C(C(=O)NOC(=O)c1ccccc1)C1CCCCC1` (stereo not given), the Potency was inconclusive: 11.2 µM [inhibitor, single point]. In the case of `CCc1ccc2nc(N(Cc3cccnc3)C(C)=O)sc2c1`, the Potency was “inactive”. For `N#Cc1ccccc1NC(=O)c1ccccc1OCC(=O)Nc1ccc2c(c1)oc1ccccc12`, the Potency was inconclusive: 12.6 µM [inhibitor, single point]. For `S=C(Nc1ccccc1)Nc1ccc(OCc2ccc(Cl)cc2Cl)cc1`, the Potency was inconclusive: 28.2 µM [inhibitor, single point]. In the case of `COc1cc(N=Nc2ccc(C(=O)N(C)C)cc2)c(C)cc1N`, the Potency was inconclusive: 10 µM [inhibitor, partial curve, poor fit]. For `Cc1ccc(N2CCN(S(=O)(=O)c3cc(C(=O)Nc4cc(Cl)cc(Cl)c4)ccc3F)CC2C)cc1` (stereo not given), the Potency was “inactive”. In the case of `CCc1nc2ccc(C(=O)NC3CCN(Cc4ccccc4)CC3)cn2c1N(CC)Cc1cccc(Br)c1`, the Potency was inconclusive: 28.2 µM [inhibitor, single point]. For `CC(C)=CCc1c2c(c3occ(-c4ccc(O)cc4)c(=O)c3c1O)C=CC(C)(C)O2`, the Potency was inconclusive: 28.2 µM [inhibitor, single point]. With `COc1cc(/C=N/Nc2nc3ccccc3s2)ccc1OC(=O)c1ccccc1F` the Potency was inconclusive: 28.2 µM [inhibitor, single point]. In the case of `CCOC(=O)CC1=NN(c2ccccc2)C(=O)C1`, the activity change, negative = inhibition was inactive: -2.14% [at 7.66 µM]. In the case of `CC(=O)N(C)c1ccc(NC(=S)Nc2ccc(C(C)C)cc2)cc1`, the Potency was inconclusive: 15.8 µM [inhibitor, single point]. In the case of `Cc1ccsc1/C=N/NC(=O)c1ccc2c(c1)OCCO2`, the Potency was inconclusive: 31.6 µM [inhibitor, single point]. In the case of `CCN1CCCC1CNC(=O)C1CCN(Cc2nc(-c3cccc(Br)c3)oc2C)CC1` (stereo not given), the Potency was inconclusive: 8.91 µM [inhibitor, partial curve, poor fit]. For `Cc1cc(SCC(=O)c2ccc(O)c(O)c2)nc2ccccc12`, the Potency was “inactive”. In the case of `CCOc1ccc2nc(NC(=O)CSc3nc(-c4ccccc4)c(C#N)c(=O)[nH]3)sc2c1`, the Potency was “inactive”. For `CCc1ccc2oc(C(=O)Nc3c(C)n(C)n(-c4ccccc4)c3=O)cc(=O)c2c1`, the Potency was “inactive”. With `CC(NCC(O)COc1ccc2ccccc2c1)c1ccccc1` (stereo not given) the Potency was inconclusive: 28.2 µM [inhibitor, single point]. In the case of `CCOc1ccc(C(=O)NCCc2sc(-c3ccc(OC)c(OC)c3)nc2C)cc1`, the Potency was “inactive”. With `O=[N+]([O-])c1ccc(O)c(C2CCCCC2)c1` the Potency was inconclusive: 12.6 µM [inhibitor, partial curve]. For `CC(C)N(CCNCC(O)COc1ccc(C(C)(C)c2ccccc2)cc1)C(C)C` (stereo not given), the Potency was inconclusive: 15.8 µM [inhibitor, single point]. In the case of `CSc1ccc2c(c1)C(N1CCN(C)CC1)Cc1ccc(F)cc1S2` (stereo not given), the Potency was inconclusive: 28.2 µM [inhibitor, single point]. With `O=C(c1ccc(N2CCCCC2)c([N+](=O)[O-])c1)N1CCOCC1` the Potency was inconclusive: 3.55 µM [inhibitor, partial curve, poor fit]. With `Cn1c(=O)c(C(=O)CCl)c(N)n(Cc2ccccc2)c1=O` the Potency was inconclusive: 7.94 µM [inhibitor, partial curve, poor fit]. In the case of `C=C1CCC2C(C)(C)[C@@H](O)CC[C@@]2(C)[C@@H]1COc1ccc2ccc(=O)oc2c1` (stereo not given in full), the Potency was inconclusive: 31.6 µM [inhibitor, single point]. For `CC(CN1CCCCC1)OC(=O)C(C)(c1ccccc1)c1ccccc1` (stereo not given), the Potency was inconclusive: 28.2 µM [inhibitor, single point]. In the case of `Cc1cc(C)cc(NC(=O)c2ccc3c(c2)nnn3C2CCCC2)c1`, the Potency was inconclusive: 2.24 µM [inhibitor, full curve, poor fit]. In the case of `O=C(/C=C/c1ccc(Cl)c([N+](=O)[O-])c1)Nc1cccc(NC(=O)c2ccco2)c1`, the Potency was inconclusive: 20 µM [inhibitor, single point]. In the case of `O=C(CCCN1C(=O)c2cccnc2Oc2ccc(Cl)cc21)NCc1ccccc1F`, the Potency was “inactive”. In the case of `N#CCC(=O)N/N=C/c1cn(Cc2ccc3ccccc3c2)c2ccccc12`, the Potency was inconclusive: 11.2 µM [inhibitor, single point]. For `COC(=O)c1cc(C(=O)N2CCN(c3ccccc3OC)CC2)cc([N+](=O)[O-])c1`, the Potency was inconclusive: 0.891 µM [inhibitor, full curve]. For `Cc1ccc(C(=O)N/N=C\c2ccc(Br)o2)o1`, the Potency was inconclusive: 1.78 µM [inhibitor, partial curve, poor fit]. In the case of `CN(C)CCCNS(=O)(=O)c1ccc(NC2CCCCCC2)c([N+](=O)[O-])c1`, the Potency was inconclusive: 12.6 µM [inhibitor, single point]. With `CCCCCC(=O)Nc1ccccc1N1CCOCC1` the Potency was “inactive”. In the case of `Cc1ccc(NC(=S)NC(=O)C2CCCC2)cc1C`, the Potency was inconclusive: 12.6 µM [inhibitor, single point]. For `CCOc1cc(/C=C2\N=C(C)OC2=O)cc(Cl)c1OCC(=O)OC`, the Potency was inconclusive: 28.2 µM [inhibitor, single point]. With `CC(C)(C)N1CC(c2nc3ccccc3n2CCOc2ccccc2)CC1=O` (stereo not given) the Potency was inconclusive: 1.12 µM [inhibitor, full curve]. With `COc1cc(NC(=O)Cn2ncc3c2-c2ccccc2OC3)cc(OC)c1OC` the Potency was inconclusive: 0.501 µM [inhibitor, full curve, poor fit]. With `O=c1c2cc(Br)ccc2nc(-c2cccc(C(F)(F)F)c2)n1O` the Potency was inconclusive: 31.6 µM [inhibitor, single point]. For `O=C(NN=Cc1cc([N+](=O)[O-])ccc1O)c1cccc2ccccc12`, the Potency was inconclusive: 12.6 µM [inhibitor, partial curve, poor fit]. For `N/C(=N\OC(=O)N1CCOCC1)c1ccc(Br)cc1`, the Potency was inconclusive: 25.1 µM [inhibitor, single point]. With `Cc1cccc(N2CCN(C(=O)c3ccncc3)CC2)c1C` the Potency was inconclusive: 3.16 µM [inhibitor, partial curve, poor fit].
